In PubChem BioAssay AID485294 (National Center for Advancing Translational Sciences (NCATS), 2010):
The whole screen tested about 370,000 compounds, of which about 150 (0.041%) were called active. This list was built around the results that the source calls inconclusive (neither active nor inactive); the mix of calls is not that of the screen. Calls come from the whole dose curve; as a rule, active = well fitted inhibition curve with a large enough effect; inconclusive = small, poorly fitted or top-dose-only effect; inactive = flat fitted curve, though single readings scatter. Potencies of inconclusive entries are left out as doubtful fits.

molecular target: Beta-lactamase (Escherichia coli (strain K12)) (UniProt P00811); experiment: qHTS Inhibitors of AmpC Beta-Lactamase (assay with detergent); conditions: AmpC hydrolysis of nitrocefin, absorbance 480 nm, 0.01% Triton; activity change, negative = inhibition: at 114 µM (top of the series); note: nearly all actives have a fitted effect of over 25% in size;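 for activity change, negative = inhibition: 0% = no-compound wells and -100% = no-enzyme wells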
Sequence of UniProt P00811 (P00811 whole entry, looked up): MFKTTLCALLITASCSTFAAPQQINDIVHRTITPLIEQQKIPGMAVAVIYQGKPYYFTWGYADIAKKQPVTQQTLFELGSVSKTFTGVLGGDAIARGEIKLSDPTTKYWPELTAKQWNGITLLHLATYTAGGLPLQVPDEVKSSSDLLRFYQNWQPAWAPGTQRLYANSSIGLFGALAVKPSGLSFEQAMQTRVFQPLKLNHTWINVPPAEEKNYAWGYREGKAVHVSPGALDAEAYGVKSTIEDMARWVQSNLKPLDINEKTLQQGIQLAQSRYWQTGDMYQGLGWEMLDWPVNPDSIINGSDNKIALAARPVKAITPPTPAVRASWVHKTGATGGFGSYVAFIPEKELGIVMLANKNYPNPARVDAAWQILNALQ
Outline: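 20 mM phosphate pH 7.0 + 0.01% (detergent screen) or 0.0001% Triton X-100; 5.3 nM AmpC reagent; cpd preinc 15 min RT; nitrocefin (800 uM stock) to start; A480 q20 s × 4 min; Activity was normalised to no-enzyme and no-compound control wells.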
Potency is the fitted concentration of half-maximal effect; tags give direction and shape of the fitted curve.

| Structure (SMILES) | Potency | activity change, negative = inhibition |
| --- | --- | --- |
| CCN(CC(=O)NCc1cccs1)C(=O)c1ccc(NS(=O)(=O)c2cccc([N+](=O)[O-])c2)cc1 | inconclusive [inhibitor, full curve, poor fit] | – |
| Nc1nc(-c2ccc(Br)cc2)cc(C(F)(F)F)n1 | – | inactive: -14% |
| CCN(CC)C(=S)Nc1cc(C(=O)OC)ccc1C(=O)OC | – | inactive: -14.2% |
| COc1cc(OC)cc(C(=O)NC(=S)N2CCCCC2c2cccnc2)c1 (stereo unspecified) | inconclusive [inhibitor, single point] | – |
| CCOC(=O)C1CCN(C(=S)Nc2cccc(C)c2C)CC1 | inconclusive [inhibitor, full curve, poor fit] | – |
| NC(=O)c1ccc(-n2nnnc2SCC(=O)NC2CCCCC2)cc1 | – | inactive: -5.67% |
| Cc1cccc(Cn2c(SCCN3CCOCC3)nc3c2c(=O)n(C)c(=O)n3C)c1 | inconclusive [inhibitor, full curve] | – |
| COC(=O)CC1COc2ccccc2N1C(=O)c1ccc(OC)cc1 (stereo unspecified) | inconclusive [inhibitor, full curve, poor fit] | – |
| CCN(C(=O)CN1c2ccccc2CC1C)c1c(N)n(Cc2ccccc2)c(=O)[nH]c1=O (stereo unspecified) | inconclusive [inhibitor, partial curve, poor fit] | – |
| CCCCOc1ccccc1C1CC(=O)Nc2ccc3ccccc3c21 (stereo unspecified) | – | inactive: 11.7% |
| O=C(NCC1CCCO1)c1cccc(Br)c1 (stereo unspecified) | inconclusive [inhibitor, full curve, poor fit] | – |
| CCc1nc(CN(C)C(=O)C2CCC(=O)N(Cc3cccc(F)c3)C2)no1 (stereo unspecified) | inconclusive [inhibitor, single point] | – |
| CCn1ncc(N(C)N)c(Cl)c1=O | inconclusive [inhibitor, full curve] | – |
| Cc1cc(C)c(NC(=O)CN2C(=O)NC3(CCCCC3)C2=O)c(Cl)c1 | inconclusive [inhibitor, partial curve, poor fit] | – |
| CCN(CC(O)CON=C1c2ccccc2-c2ccccc21)S(=O)(=O)c1ccc(C)cc1 (stereo unspecified) | – | inactive: -4.25% |
| Cc1nc(N2CCOCC2)nc(N2CCCC2)c1[N+](=O)[O-] | inconclusive [inhibitor, single point] | – |
| Clc1ccccc1N1CCN(c2ncnc3nc[nH]c23)CC1 | inconclusive [inhibitor, partial curve, poor fit] | – |
| O=C(Nc1ccccn1)c1ccc(-c2ccccc2)cc1 | inconclusive [inhibitor, full curve, poor fit] | – |
| Cc1ccc(NC(=O)NCCN2CCCCC2)cc1 | – | inactive: 1.66% |
| Cc1ccc(NC(=O)c2ccc3[nH]c(=O)c(=O)[nH]c3c2)nc1 | – | inactive: 1.14% |
| CCCCn1c(NC(=O)c2ccccc2)nc2ccccc21 | inconclusive [inhibitor, full curve, poor fit] | – |
| N#CC1=C2SCN(Cc3ccccc3)CN2C(=O)CC1c1ccc2c(c1)OCO2 (stereo unspecified) | – | inactive: 0.84% |
| Cc1ccc(CCNC(=O)C2CCCN(S(=O)(=O)c3c(C)nn(C)c3C)C2)cc1 (stereo unspecified) | inconclusive [inhibitor, partial curve] | – |
| CCCCCCn1c(O)c(/C=N/N2CCCCCC2)c(=O)[nH]c1=O | inconclusive [inhibitor, single point] | – |

| Structure (SMILES) | Potency | activity change, negative = inhibition |
| --- | --- | --- |
| Cc1cc(C)n(CCCNC(=O)Cn2nnnc2CN2C[C@@H](C)O[C@@H](C)C2)n1 | inconclusive [inhibitor, full curve, poor fit] | – |
| O=c1c2[nH]c3ccccc3c2ncn1C1CCCCC1 | inconclusive [inhibitor, full curve, poor fit] | – |
| Cc1cc(C)cc(NC(=S)Nc2ccc3cn[nH]c3c2)c1 | – | inactive: -5.21% |
| Cc1c(C(=O)N2CCN(S(C)(=O)=O)CC2)oc2ccccc12 | – | inactive: -4.49% |
| O=S(=O)(c1ccccc1)c1cnn(-c2ccccc2)c1-c1ccc(F)cc1 | inconclusive [inhibitor, full curve, poor fit] | – |
| Cc1cccc(N(C)S(=O)(=O)c2c(C)noc2C)c1 | – | inactive: -11.1% |
| NC(=O)c1c(N)sc2c1CCCC2 | inconclusive [inhibitor, full curve, poor fit] | – |
| CC(=O)Nc1ccc(NC(=O)CCCc2c[nH]c3ccccc23)cc1 | – | inactive: 5.05% |
| CC1(C)NC(=O)NC2(C)NC(=O)NC(C)(C)C12 (stereo unspecified) | inconclusive [inhibitor, full curve, poor fit] | – |
| COCc1[nH]nc2c1C1(C(=O)N(C)c3ccccc31)C(C#N)=C(N)O2 (stereo unspecified) | inconclusive [inhibitor, full curve, poor fit] | – |
| Cc1cc(OCC(O)CNC(C)c2ccccc2)ccc1C(C)C (stereo unspecified) | inconclusive [inhibitor, single point] | – |
| Cc1ccc2nc(CSc3nnc(-c4ccncc4)n3C)cc(=O)n2c1 | inconclusive [inhibitor, full curve, poor fit] | – |
| O=C(NCc1ccco1)c1ccc(Br)c(S(=O)(=O)N2CCCCC2)c1 | inconclusive [inhibitor, partial curve, poor fit] | – |
| CCCc1cc(=O)oc2c3c(ccc12)OCN(Cc1ccccc1OC)C3 | – | inactive: 10.9% |
| O=C(Nc1cc([N+](=O)[O-])ccc1O)c1cccc(C(=O)Nc2cc([N+](=O)[O-])ccc2O)c1 | inconclusive [inhibitor, partial curve, poor fit] | – |
| CCOC(=O)N1CCN(C(=O)c2ccc(Cl)c(S(=O)(=O)N3CCOCC3)c2)CC1 | inconclusive [inhibitor, partial curve, poor fit] | – |
| CCC(=O)OCc1cc(=O)n2nc(C3CC3)sc2n1 | – | inactive: 24.1% |
| CCOC(=O)C1=C(C)NC(=O)NC1c1ccccc1Cl (stereo unspecified) | – | inactive: -9.47% |
| Cc1ccc(Cl)cc1N1CCN(C(=O)C(=O)N2CCCCC2)CC1 | inconclusive [inhibitor, full curve, poor fit] | – |
| CN(C)c1nc(N)nc(-c2ccco2)n1 | inconclusive [inhibitor, full curve] | – |
| S=C(Nc1nc2c(s1)CCCC2)NC1CC1 | inconclusive [inhibitor, partial curve, poor fit] | – |
| Cc1ccc(C(=O)NCCSC(C)(C)C)cc1 | inconclusive [inhibitor, full curve, poor fit] | – |
| Cc1ccc(/C=N/Nc2ccc3ccccc3n2)o1 | – | inactive: 1.55% |
| COc1ccc(/C=N/NC(=O)CNC(=O)c2ccc(S(=O)(=O)N3CCOCC3)cc2)c(OC)c1 | inconclusive [inhibitor, full curve, poor fit] | – |

| Structure (SMILES) | Potency | activity change, negative = inhibition |
| --- | --- | --- |
| COc1cccc(CNC(=O)c2cc(S(=O)(=O)N3CCOCC3)cn2C)c1 | inconclusive [inhibitor, full curve, poor fit] | – |
| CCCCC1CCC(C(=O)N2CC(=O)Nc3ccc(Br)cc3C2c2ccc(F)cc2)CC1 (stereo unspecified) | inconclusive [inhibitor, full curve, poor fit] | – |
| Cc1ccnc(NC(=O)Nc2ccc3c(c2)N(C)C(=O)CS3)c1 | inconclusive [inhibitor, partial curve, poor fit] | – |
| COc1ccc(CCNC(=O)COc2ccc(S(=O)(=O)N3CCOCC3)cc2)cc1 | inconclusive [inhibitor, partial curve] | – |
| Cc1cc(-c2n[nH]c(=S)n2/N=C/c2cccs2)n[nH]1 | inconclusive [inhibitor, full curve] | – |
| CCCCc1n[nH]c(=S)n1Cc1ccc(C)cc1 | inconclusive [inhibitor, full curve, poor fit] | – |
| Nc1nonc1-c1noc(CCCOc2ccc(Cl)cc2Cl)n1 | inconclusive [inhibitor, full curve, poor fit] | – |
| CC1Cn2c(nnc2-c2cccc(Cl)c2)S1 (stereo unspecified) | inconclusive [inhibitor, full curve, poor fit] | – |
| C/C(=N\Nc1cc(C)nc(-c2ccccc2O)n1)c1ccccc1O | – | inactive: 8.34% |
| CCOc1cc(OCC)c(C(C)=O)cc1OCC | – | inactive: -6.5% |
| Cc1ccc(S(=O)(=O)n2c(C)nc3ccccc32)cc1 | inconclusive [inhibitor, full curve, poor fit] | – |
| O=c1cc(CSc2nnc(-c3cccs3)n2Cc2ccccc2)nc2sc3ccccc3n12 | – | inactive: -0.888% |
| CN(C)CC(CCC(CN(C)C)C(=O)c1ccccc1)C(=O)c1ccccc1 (stereo unspecified) | – | inactive: 1.43% |
| CC(=O)C1=C(C)Nc2ncnn2C1c1cccc(OCc2ccccc2)c1 (stereo unspecified) | inconclusive [inhibitor, full curve, poor fit] | – |
| Cc1ccc(N(CC(=O)N2CCN(c3cc(C)ccc3C)CC2)S(=O)(=O)c2c(C)nn(C)c2C)cc1 | – | inactive: 1.68% |
| COC(=O)c1ccc(Oc2ccc(C(F)(F)F)cn2)cc1 | inconclusive [inhibitor, full curve, poor fit] | – |
| O=C(N/N=C/c1ccc(Cl)cc1Cl)Nc1ccccc1 | – | inactive: 1.38% |
| Cc1ccc(-c2nnc(N3CCOCC3)c3ccccc23)cc1S(=O)(=O)NCC1CCCO1 (stereo unspecified) | – | inactive: -3.07% |
| CC(C(=O)N1CCN(C2c3ccccc3-c3ccccc32)CC1)N1C(=O)c2ccccc2C1=O (stereo unspecified) | inconclusive [inhibitor, single point] | – |
| CCn1cc2c(n1)-c1c(oc(C(=O)Nc3ccc(Br)cc3F)c1C)CC2 | – | inactive: -3.07% |
| CC(=O)c1cccc(NC(=O)CCCSc2ccccc2)c1 | – | inactive: -13.8% |
| C/C(=N\NC(N)=S)C12CC3CC(CC(C3)C1)C2 | – | inactive: -2.39% |
| CCOC(=O)c1cc2c(nc1N)CC(C)(CC)OC2 (stereo unspecified) | inconclusive [inhibitor, single point] | – |
